Experimental data: the supplement of paper PMC3334620
In all, about 33,000 sequences were measured (“E-score (-0.5 to 0.5)”: median about -0.053, highest 2% from about 0.37 on). The list shows a part of the results.

What follows are sequences tested against Hap1 (UniProt P0CE41) (assay: PBM E-score (8-mer binding enrichment) (E-score (-0.5 to 0.5)); higher = stronger / more preferred TF binding; most listed sequences are background and not binding sites). Details: protein concentration: 200 nM; construct: GST-DNA-binding domain.
In short: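 For each ungapped eight-base word taken together with its reverse complement, the Universal PBM Analysis Suite assigned an E-score. Binding data came from GST-tagged yeast transcription factors, applied at about 100-200 nM, on universal all-10-mer Agilent arrays made double-stranded by primer extension. Fluorescent anti-GST marked bound protein, and scans were normalised with masliner.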

Sequence of UniProt P0CE41 (P0CE41 whole entry, the tested form may be a part): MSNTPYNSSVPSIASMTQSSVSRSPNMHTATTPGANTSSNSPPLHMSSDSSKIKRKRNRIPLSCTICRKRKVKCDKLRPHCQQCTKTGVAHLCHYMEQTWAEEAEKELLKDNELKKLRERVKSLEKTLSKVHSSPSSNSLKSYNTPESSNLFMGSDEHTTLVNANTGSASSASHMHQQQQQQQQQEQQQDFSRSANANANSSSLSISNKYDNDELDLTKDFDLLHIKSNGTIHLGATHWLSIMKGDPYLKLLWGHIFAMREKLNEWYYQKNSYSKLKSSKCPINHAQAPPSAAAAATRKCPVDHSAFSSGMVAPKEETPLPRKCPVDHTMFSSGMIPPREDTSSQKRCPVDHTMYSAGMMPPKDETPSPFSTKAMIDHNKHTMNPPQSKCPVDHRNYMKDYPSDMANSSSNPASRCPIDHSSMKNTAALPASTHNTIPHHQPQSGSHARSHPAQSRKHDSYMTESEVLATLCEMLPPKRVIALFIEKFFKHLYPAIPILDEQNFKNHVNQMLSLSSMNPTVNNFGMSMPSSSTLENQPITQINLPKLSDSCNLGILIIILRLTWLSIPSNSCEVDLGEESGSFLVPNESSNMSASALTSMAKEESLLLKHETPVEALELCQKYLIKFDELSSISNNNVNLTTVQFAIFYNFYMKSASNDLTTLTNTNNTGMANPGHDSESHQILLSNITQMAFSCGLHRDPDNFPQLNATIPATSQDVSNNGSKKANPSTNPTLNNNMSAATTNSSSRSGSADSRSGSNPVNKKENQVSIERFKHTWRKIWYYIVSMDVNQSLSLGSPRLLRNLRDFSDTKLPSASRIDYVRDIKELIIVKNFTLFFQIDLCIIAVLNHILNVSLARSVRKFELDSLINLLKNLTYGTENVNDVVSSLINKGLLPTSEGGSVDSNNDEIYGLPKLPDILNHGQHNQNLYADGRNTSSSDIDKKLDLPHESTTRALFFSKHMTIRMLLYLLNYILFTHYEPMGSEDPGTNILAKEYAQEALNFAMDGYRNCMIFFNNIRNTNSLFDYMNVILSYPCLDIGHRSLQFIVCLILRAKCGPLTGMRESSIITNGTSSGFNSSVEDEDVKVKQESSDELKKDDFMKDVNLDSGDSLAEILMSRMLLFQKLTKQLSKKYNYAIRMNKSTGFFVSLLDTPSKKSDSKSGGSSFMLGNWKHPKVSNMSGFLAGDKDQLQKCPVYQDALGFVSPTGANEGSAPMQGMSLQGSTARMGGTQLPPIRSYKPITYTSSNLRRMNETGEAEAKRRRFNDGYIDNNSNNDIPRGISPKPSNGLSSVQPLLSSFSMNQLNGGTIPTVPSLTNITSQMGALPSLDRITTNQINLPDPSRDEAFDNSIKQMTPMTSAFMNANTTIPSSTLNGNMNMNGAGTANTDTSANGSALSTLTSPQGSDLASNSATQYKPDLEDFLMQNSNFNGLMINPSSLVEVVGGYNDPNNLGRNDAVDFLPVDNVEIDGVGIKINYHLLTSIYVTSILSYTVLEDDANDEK

Row | Sequence | PBM E-score
1 | GGGGCCCA | -0.0401
2 | CAAATCAG | -0.279
3 | TACGACGA | -0.11
4 | ACCCCAAA | 0.00371
5 | CCTAAATA | -0.188
6 | AGCACCTC | -0.0891
7 | AACAAGGG | -0.0715
8 | ATATTTCA | -0.15
9 | CTCCCAAA | -0.15
10 | AAGATCTG | -0.158
11 | AAAATGGT | 0.0826
12 | CGCATCAA | 0.148
13 | AAACAAAC | -0.219
14 | ATTGACCC | -0.0115
15 | ACTCAACG | -0.023
16 | ACGGCGCT | 0.0711
17 | ACTTAAGG | 0.00027
18 | ATAGGTGG | -0.178
19 | GAGAGCTA | -0.0786
20 | AACGACGA | 0.0635
21 | GAAGATGA | -0.214
22 | ACCGTACA | -0.0557
23 | GTACGCCA | -0.235
24 | CTGACTAC | -0.141
25 | ACTAAACG | -0.112

Row | Sequence | PBM E-score
26 | GGAGTATA | 0.206
27 | TCCGGCGA | 0.362
28 | GACCTCCA | 0.0493
29 | CCGGACAA | 0.414
30 | AACGCGGC | 0.154
31 | CGGTCTTC | 0.148
32 | GTGATCGA | -0.094
33 | ATGAATGA | -0.194
34 | GGAAAGCC | 0.147
35 | CCCATGAG | -0.202
36 | GTCCCTTA | -0.0555
37 | ATTGGCCA | -0.144
38 | TGGTGCAA | -0.287
39 | CGATTCCG | 0.363
40 | CTCGTAGA | -0.274
41 | AGCTTACA | -0.183
42 | TAGCGGCA | 0.227
43 | GGGAGGAA | 0.19
44 | GAAGTGGA | -0.0709
45 | AAACCAGC | 0.0273
46 | ACCGGCGA | 0.39
47 | CTCTATAA | -0.193
48 | ATAAGCAC | -0.0528
49 | TACTGACA | -0.0892
50 | CATATAGG | -0.0486

Row | Sequence | PBM E-score
51 | ACTGTGAT | -0.21
52 | AAACTATC | -0.0386
53 | CTGGGTGC | -0.134
54 | ACATCATC | -0.203
55 | GGCCAATA | 0.215
56 | CATTTCGA | -0.0843
57 | CTGGAATC | -0.051
58 | TCATTGAA | -0.157
59 | GAGCGGGA | 0.0462
60 | CACAGGCC | -0.185
61 | GGGCACAC | -0.119
62 | CCGGAAGG | 0.313
63 | CTTTAACC | -0.0789
64 | AACTATGC | 0.116
65 | ACGTTGAG | -0.0884
66 | AAGCCAAA | -0.183
67 | CATAGCCC | -0.135
68 | ATAAACTG | -0.00148
69 | TAGAATAA | 0.0891
70 | CATCTGGC | -0.122
71 | AAATTATA | 0.152
72 | CTGGCCGC | -0.119
73 | CTCAGTAA | -0.232
74 | GAATAAGA | -0.00974
75 | CTTGGTGA | -0.102

Row | Sequence | PBM E-score
76 | AATTAAGC | 0.102
77 | CCTGAGTA | -0.197
78 | AAATGCTG | -0.137
79 | AGCGATGG | 0.0259
80 | CCAATTAC | -0.0755
81 | AATGGTAG | -0.158
82 | GTCGCTGA | -0.0897
83 | GACCACAA | 0.0577
84 | CATCAAGG | -0.295
85 | GTACTAAC | 0.00479
86 | ACATACAG | -0.134
87 | GAGACTAC | 0.00699
88 | CCGAAAAC | 0.379
89 | AAGACTGA | -0.252
90 | ACCTACAG | 0.0147
91 | CTCCGTGA | 0.313
92 | CCTATGCG | 0.00275
93 | AACCGTCG | 0.099
94 | ATCCCGCA | 0.0537
95 | CATCGTGC | -0.267
96 | AAAAGCGA | 0.271
97 | GTCCTTGA | -0.184
98 | CGCAGAGC | 0.012
99 | CTAACTGC | -0.0433
100 | AACCCCCC | -0.191

Row | Sequence | PBM E-score
101 | ATGCCCCC | -0.0822
102 | GCATCTTA | -0.0356
103 | ACCCTTTA | 0.0194
104 | AGCCCCCC | -0.0912
105 | ACGGCAAA | 0.143
106 | CAATATCG | 0.236
107 | ATTATAAG | -0.105
108 | GCTTAGGA | -0.101
109 | CGGAGCCA | 0.289
110 | CCATTACA | 0.074
111 | GAGGGCAC | -0.145
112 | TCTAAGAA | -0.033
113 | ACAATTAC | -0.213
114 | AGACCGCG | 0.108
115 | ACTCGTAG | -0.152
116 | GCCAGCGC | -0.134
117 | AACCCCTA | -0.166
118 | GCCGGGCA | 0.301
119 | AGAGATAG | -0.0547
120 | ATACTTGA | -0.347
121 | ACTTTGGG | -0.0641
122 | AAGGTACG | -0.168
123 | CAGACTGC | -0.327
124 | GTGAATGA | 0.038
125 | GCAATGCA | -0.206

Row | Sequence | PBM E-score
126 | AGAGCCTG | -0.33
127 | ACTGGTTG | -0.078
128 | AGTCAGAC | -0.115
129 | GAAAATGC | -0.102
130 | CCTATCAG | -0.147
131 | AGCCGATC | 0.245
132 | CAGATACC | 0.106
133 | ATCAACGG | 0.148
134 | ATTTGTGC | -0.17
135 | CCACCTGG | -0.268
136 | ATGTTTCG | 0.0559
137 | CGTGGTAA | -0.202
138 | ATCCACCG | 0.271
139 | CCCTTGAA | -0.101
140 | ACCGCTAT | 0.289
141 | TAAGGAGA | -0.0462
142 | CATTACAC | -0.0909
143 | GGTTCTAA | 0.191
144 | CGATATGC | 0.242
145 | CCTCTTTC | -0.0145
146 | GTCCACCA | -0.128
147 | CAGTTTGG | -0.204
148 | GCGTGAGC | -0.0131
149 | AGTAGTCC | 0.242
150 | CTCTAGTA | 0.00181

Row | Sequence | PBM E-score
151 | AATTCTTC | 0.0658
152 | GCTCGTGA | -0.155
153 | ACCACGAT | -0.123
154 | CTCTAACA | -0.26
155 | AAGTGGCG | -0.0765
156 | CATTCTGG | -0.192
157 | CTGAAGGA | -0.21
158 | AATGAATG | -0.131
159 | AGACTCAA | -0.141
160 | CTAAAACA | -0.217
161 | CCTCGGTC | 0.298
162 | CATTAGAG | -0.137
163 | CTTAGAAC | -0.0393
164 | CATCCGGA | 0.423
165 | ACCCACCA | -0.133
166 | ATGTCGAA | -0.117
167 | GGGGCGGA | 0.257
168 | TACACTCA | -0.195
169 | CATACACA | -0.322
170 | AATTAAAA | 0.0139
171 | ATTCCCGA | 0.395
172 | ACGTTTAC | -0.0752
